This is an account of results in the BET-seq Pho4 binding data (Le et al. 2018).

The list shows a part of the results. Values were computed here from the reads of four pooled replicates and scatter widely.

The target in the experiment is T1, Pho4 (S. cerevisiae) (UniProt P07270).
T1 sequence: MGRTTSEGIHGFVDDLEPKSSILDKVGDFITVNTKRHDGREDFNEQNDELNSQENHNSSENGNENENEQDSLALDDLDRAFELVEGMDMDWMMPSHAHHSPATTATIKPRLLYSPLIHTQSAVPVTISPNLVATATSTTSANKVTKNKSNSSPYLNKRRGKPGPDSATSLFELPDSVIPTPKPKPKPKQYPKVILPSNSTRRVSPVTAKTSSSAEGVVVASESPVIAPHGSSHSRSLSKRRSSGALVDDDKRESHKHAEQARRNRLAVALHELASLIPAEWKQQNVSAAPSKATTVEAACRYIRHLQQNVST
In words: relative binding free energy (BET-seq); higher = weaker binding. The note with it: reference: library average.
In the case of CTAGGCACGTGGTGGA, the “relative binding free energy” value was -0.16 kcal/mol. As for GTGGGCACGTGTACTT, the “relative binding free energy” value is -0.03 kcal/mol. In the case of TTGAGCACGTGCTGGT, the “relative binding free energy” value was -0.12 kcal/mol.

Consider TTGTTCACGTGGTCAC, for which the “relative binding free energy” value was found to be 0.4 kcal/mol. The value for GACGGCACGTGAGGTG was 0.16 kcal/mol; that for GGTTCCACGTGTGGTG was -0.1 kcal/mol; that for TTTCTCACGTGGGATA was 0.13 kcal/mol. Then AGTTTCACGTGGAAGA, with 0.34 kcal/mol; and TTTGTCACGTGACGTT, with 0.12 kcal/mol.

With GATTTCACGTGGGTTC, the “relative binding free energy” value amounted to 0.41 kcal/mol. As to AATTTCACGTGTGTTC, the “relative binding free energy” value is 0.28 kcal/mol. TTTCGCACGTGTGGTG: the “relative binding free energy” value was -0.11 kcal/mol.

As for ACGTACACGTGGGGGC, the “relative binding free energy” value was -0.15 kcal/mol.

In the case of GCTATCACGTGGGGCT, the “relative binding free energy” value is 0.05 kcal/mol. Consider AGTTGCACGTGTGCGT, for which the “relative binding free energy” value was -0.07 kcal/mol.

As to ATTAACACGTGTACGG, the “relative binding free energy” value was 0.07 kcal/mol.

With TTGCGCACGTGAGTTA, the “relative binding free energy” value came out at 0.03 kcal/mol.

On to AATAGCACGTGTTATT, for which the “relative binding free energy” value is -0.04 kcal/mol. Then AGGCTCACGTGTGTTT, with 0.13 kcal/mol; and TTCGTCACGTGCGTGG, with 0.11 kcal/mol; and ATGTGCACGTGACGTG, with 0.07 kcal/mol.

GTGGCCACGTGGTATA: the “relative binding free energy” value is -0.08 kcal/mol. The value for AAAATCACGTGTGGTA was 0.15 kcal/mol; that for TATAGCACGTGGGATT was -0.08 kcal/mol; that for TATATCACGTGTGCTA was 0.08 kcal/mol.

ATTCTCACGTGTGGGG: the “relative binding free energy” value is 0.2 kcal/mol.

For the sequence TCTCGCACGTGTAGTG, the “relative binding free energy” value is -0.01 kcal/mol.

On to ATGGTCACGTGGAATT, for which the “relative binding free energy” value is 0.31 kcal/mol. GGTTGCACGTGTAGGC: the “relative binding free energy” value worked out at 0.09 kcal/mol.

As to GAGCTCACGTGGTGGT, the “relative binding free energy” value was 0.09 kcal/mol. Consider AGTGGCACGTGCGAGT, for which the “relative binding free energy” value was -0.15 kcal/mol. The value for TTGCACACGTGGAGGG was -0.14 kcal/mol; that for TTGGTCACGTGAGTTT was 0.27 kcal/mol; that for AGGGGCACGTGGACGT was -0.12 kcal/mol. GTGCGCACGTGGCAGT: the “relative binding free energy” value is -0.21 kcal/mol. Then CGTGTCACGTGTTACG, with 0.12 kcal/mol. On to TGTAGCACGTGTGCGC, for which the “relative binding free energy” value is -0.2 kcal/mol. For the sequence AAATACACGTGGGGTA, the “relative binding free energy” value was -0.13 kcal/mol. GTGCACACGTGTGGCG: the “relative binding free energy” value came out at 0.07 kcal/mol.

Turning to AGGTACACGTGGCTGA, the “relative binding free energy” value was 0 kcal/mol. The value for CGTTACACGTGGGTAT was 0.05 kcal/mol; that for GTAAACACGTGTGTAA was 0.12 kcal/mol; that for TGAGCCACGTGGGGTT was -0.22 kcal/mol. Then AGAGTCACGTGGGGTT, with -0.02 kcal/mol; and ATTCGCACGTGTGTGC, with -0.13 kcal/mol; and AGCGGCACGTGTATGG, with -0.01 kcal/mol.

Consider CTGAGCACGTGTGATA, for which the “relative binding free energy” value came to 0.17 kcal/mol. Turning to GCGGTCACGTGGTTCT, the “relative binding free energy” value was determined as 0.08 kcal/mol.

As to GTGATCACGTGGGCTT, the “relative binding free energy” value was determined as 0.05 kcal/mol.

With ACCGGCACGTGTTTAT, the “relative binding free energy” value came out at 0.23 kcal/mol. As to TCCGGCACGTGTTGTG, the “relative binding free energy” value amounted to 0.02 kcal/mol. The value for TCGTTCACGTGTAAAG was 0.34 kcal/mol; that for TTTCACACGTGGGCTT was -0.05 kcal/mol. Then CTTGTCACGTGGTAAA, with 0.03 kcal/mol; and CATAGCACGTGTAGTG, with 0.01 kcal/mol; and TGCAGCACGTGTGGCT, with -0.15 kcal/mol. As to AATAGCACGTGGGCGG, the “relative binding free energy” value was -0.25 kcal/mol. Take ATCGGCACGTGGTTGG: the “relative binding free energy” value came to 0.01 kcal/mol. For the sequence CAGTGCACGTGTGTTA, the “relative binding free energy” value was -0.06 kcal/mol. Then GTTCTCACGTGTGTCT, with 0.23 kcal/mol. Then TTTATCACGTGAGGCT, with 0.4 kcal/mol; and ATGGTCACGTGTATCT, with 0.11 kcal/mol. Consider ACTTGCACGTGGCGTG, for which the “relative binding free energy” value is -0.03 kcal/mol. TGTTGCACGTGTCATA: the “relative binding free energy” value was -0.09 kcal/mol. The value for GTATGCACGTGCCTGG was 0.03 kcal/mol. The value for CGGTGCACGTGGTGGA was -0.11 kcal/mol. The value for GCTGACACGTGAGTGG was 0.31 kcal/mol; that for TGGGTCACGTGTTTGA was 0.07 kcal/mol. AGTAACACGTGGTCAG: the “relative binding free energy” value is -0.05 kcal/mol. The value for TCGGGCACGTGGGGCG was -0.26 kcal/mol; that for ATCGGCACGTGCGTGG was -0.14 kcal/mol; that for TTTAACACGTGTGCGG was 0.06 kcal/mol.

For the sequence TAACTCACGTGTGTAA, the “relative binding free energy” value turned out to be 0.31 kcal/mol. Turning to TGCGACACGTGGGGTA, the “relative binding free energy” value was -0.25 kcal/mol.

Regarding TATTTCACGTGAGTAA, the “relative binding free energy” value came to 0.31 kcal/mol. For the sequence TAGGGCACGTGGACTT, the “relative binding free energy” value is -0.04 kcal/mol. Then GTTGACACGTGAAGCG, with 0.32 kcal/mol. AGGTGCACGTGCGTGT: the “relative binding free energy” value is -0.11 kcal/mol. Then GGAGCCACGTGGTTAG, with -0.02 kcal/mol; and CTTATCACGTGTGTAT, with 0.2 kcal/mol. Then TATTTCACGTGGGTTA, with 0.11 kcal/mol; and TTAGACACGTGCAGGG, with -0.07 kcal/mol; and GGGATCACGTGGAGGG, with 0.11 kcal/mol. The value for AAGAGCACGTGGATTG was -0.05 kcal/mol; that for CGCGTCACGTGGGTAG was -0.14 kcal/mol.

For the sequence AAGGGCACGTGATAAG, the “relative binding free energy” value stood at 0 kcal/mol.

In the case of TATGGCACGTGCTCGT, the “relative binding free energy” value is -0.26 kcal/mol. With AGCTTCACGTGTGTTA, the “relative binding free energy” value is 0.23 kcal/mol. Then CTTGGCACGTGGCGCG, with -0.2 kcal/mol; and CGGTACACGTGATTAT, with 0.32 kcal/mol.

Regarding ACGAGCACGTGAGGTG, the “relative binding free energy” value is 0.21 kcal/mol.

As to GGCGGCACGTGTAGAT, the “relative binding free energy” value came out at 0.29 kcal/mol.

For the sequence ATTGTCACGTGGAACG, the “relative binding free energy” value was 0.18 kcal/mol. The value for AAATTCACGTGGTAGT was 0.21 kcal/mol.

In the case of TCGTGCACGTGCTCGG, the “relative binding free energy” value was -0.06 kcal/mol.

In the case of AGATGCACGTGATAGT, the “relative binding free energy” value was found to be 0.12 kcal/mol. With TGACGCACGTGGCTGG, the “relative binding free energy” value was -0.2 kcal/mol.

In the case of CGTGGCACGTGGCCGG, the “relative binding free energy” value is -0.26 kcal/mol. With TGTTGCACGTGAGAAG, the “relative binding free energy” value turned out to be 0.17 kcal/mol. Then GTTATCACGTGTGGTG, with 0.19 kcal/mol; and CTGTGCACGTGAAGGG, with 0.23 kcal/mol. Consider AGTGGCACGTGGTACA, for which the “relative binding free energy” value was -0.25 kcal/mol. The value for GTAGGCACGTGTACTT was 0.05 kcal/mol; that for ATTAGCACGTGTGGTT was 0.06 kcal/mol. The value for TTTTGCACGTGATCTA was -0.09 kcal/mol; that for TGCGGCACGTGGATGT was -0.15 kcal/mol. Regarding AACGGCACGTGTTTGG, the “relative binding free energy” value was -0.08 kcal/mol. Then AGTTACACGTGGTGAG, with 0.17 kcal/mol; and CGAAACACGTGTGTGG, with -0.03 kcal/mol; and GGGTTCACGTGAAAAG, with 0.39 kcal/mol. In the case of ATAGTCACGTGGACGT, the “relative binding free energy” value was -0.03 kcal/mol. Consider TTACTCACGTGGGTGG, for which the “relative binding free energy” value is 0.07 kcal/mol. Then AGTGTCACGTGATGGG, with 0.24 kcal/mol. Regarding GTCTGCACGTGAAATT, the “relative binding free energy” value is 0.48 kcal/mol. The value for TGGTTCACGTGAATTG was 0.46 kcal/mol.
